Experimental data published in PubChem BioAssay AID1814 (Broad Institute, 2009).
The whole screen tested about 300,000 compounds, of which about 22,000 (7.3%) were called active. Inconclusive results, whose numbers are uncertain, are shown with a selection of clear calls. Rule as the data show it: active = activity score below about -60%; inconclusive = mostly about -28% to -61%; inactive = positive scores.

Test: Activators via SNCA 5'UTR binding, MLPCN (AID 1814)
Details: alpha-synuclein 5'UTR reporter, activators screen; hits give low values; tested at 7.5 µM

Activity score, active:
Cc1cc(OCc2cc(C(=O)N(C)CCc3cnn(C)c3)no2)cc(C)c1Cl -145%
Cc1ccc(-c2nn(-c3ccccc3)cc2C=C2C(=O)CC(C)(C)CC2=O)cc1 -94%
CCOC(=O)C1=C(COC(=O)c2cccc(N(C)C)c2)NC(=O)NC1C (stereo unspecified) -136%
Cn1c(SCC(=O)c2ccccc2)nnc1-c1ccccn1 -128%
Cc1cccnc1NC(=S)Nc1ccc(F)cc1F -74.4%
O=C(NC(=S)Nc1ccc2oc(-c3cccnc3)nc2c1)c1cccc(Cl)c1 -115%
COc1ccc(/C=C/c2ccc3ccccc3[n+]2C)cc1OC -124%
O=[N+]([O-])c1cc(C=Nc2ccc3ccccc3c2)ccc1Br -119%
Nc1nonc1-n1nnc(C(=O)N/N=C/C=C/c2ccccc2)c1CSC1=NCCS1 -79.8%
O=C(NNc1c2ccccc2nc2ccccc12)c1ccccc1O -92.9%
Nc1c(C(=O)c2ccccc2)oc2ccc(Br)cc12 -256%
COc1ccc(NC(=S)N/C(=N/CS(=O)(=O)c2ccccc2)c2ccccc2)cc1 -89.5%
O=C(O)c1c(-c2ccc(Cl)cc2)cn2ccccc12 -167%
O=C(NCC(c1cccs1)N1CCOCC1)c1ccc(Cl)cc1 (stereo unspecified) -100%
Oc1ccc(NC(=S)N=Nc2c(O)[nH]c3ccccc23)cc1 -131%
CCCSc1nsc(NC(=O)CCC)n1 -142%
COc1ccc(-c2coc3cc(OC)cc(OC)c3c2=O)cc1 -166%
c1ccc(Cn2ccc(-c3cnc(-c4ccccc4)s3)n2)cc1 -106%
Cc1cc(NC(=O)c2ccccc2F)ncc1NC(=O)c1cccs1 -63%
Cc1ccc(OCC(=O)Nc2ccccc2C(N)=O)cc1 -97.9%
Cc1ccc(NC(=O)c2ccc3c(=O)n4c(nc3c2)CCCCC4)nc1 -71.7%
COc1cccc(/C=N/Nc2ccc(Cl)nn2)c1OC -155%
Cn1cc(/C=C2\SC(=O)N(c3ccc(O)cc3)C2=O)c2ccccc21 -86.1%

Activity score, inactive:
CC(C)c1c(O)cc(-c2ccncc2)n(-c2ccc(Cl)cc2)c1=O 37.1%
CCCCCCCCCn1ccc(=N)cc1 81.9%
CC(C)CCNc1nc(N)c([N+](=O)[O-])c(NCC2CCCO2)n1 (stereo unspecified) 61.6%
COCCn1c(=O)c2c(nc3n2CC(C)CN3CCc2ccccc2)n(C)c1=O (stereo unspecified) 67.2%
COc1ccc(/C=C/C(=O)NC(=S)NNC(=O)c2cnccn2)cc1 74.8%
CCN1C=CC(=C2C(=O)c3ccccc3C2=O)C=C1 96.1%
NC(=O)N/N=C/c1ccc2cccc(OCc3ccccc3)c2n1 59.9%
Cc1ccc(C(=O)Nc2ccc3ccccc3c2)cc1 66%
Clc1ccc(-n2ncc3c(N4CCCC4)ncnc32)cc1 92.3%
CCCOc1ccc(C(=O)NNC(=S)NC(=O)c2ccco2)cc1 51.5%
CCN=C1S/C(=C\c2cn(CC(=O)NCc3ccco3)c3ccccc23)C(=O)N1CC 65.5%
CCCC(=O)NC(c1cccs1)c1cc(Cl)c2cccnc2c1O (stereo unspecified) 99.4%
Cc1ccnc(NC(=O)c2ccccc2NC(=O)c2ccc(Cl)cc2Cl)c1 69.3%
CCCCN1C=CC(=C2C(=O)c3ccccc3C2=O)C=C1 98.5%
COc1ccc(C(C)NCCC(c2ccc(OC(C)C)cc2)c2ccccc2OC)cc1 (stereo unspecified) 93.3%
CC(C)CCNCC(O)CON=C1c2ccccc2-c2ccccc21 (stereo unspecified) 86.2%
CCCCN(C)S(=O)(=O)c1ccc(C(=O)Nc2nnc(-c3cccs3)o2)cc1 80.9%
CCCCC(=O)NC(c1ccccc1OC)c1ccc2cccnc2c1O (stereo unspecified) 101%
Cc1ccc(S(=O)(=O)Nc2cc(Cl)c(O)c3ncccc23)cc1 77.2%
N#Cc1c(NC(=O)CSc2ncn[nH]2)sc2c1CCCC2 84.1%
Cc1ccc(/C=N/Nc2ccc(C(=O)O)cc2)s1 75.7%
COc1cc2cc(-c3ccc(OC)c(OC)c3C)nc(N)c2cc1OC 95.5%
Cc1nc(SCc2cccc(C(=O)O)c2)nc2c1CCCC2 59%
O=C(c1cc(-c2ccc3c(c2)OCO3)on1)N1CCCCC1 60.6%
CN1/C(=C/C(=O)c2nc(S(C)(=O)=O)ncc2Cl)C(C)(C)c2ccccc21 57.1%
COc1ccc(C2c3ccc4ccccc4c3Oc3ncn(CCN4CCOCC4)c(=N)c32)cc1OC (stereo unspecified) 105%
COc1nc(-c2ccccc2)cc(-c2ccc3c(c2)OCO3)c1C#N 64.4%
CCOC(=O)c1c(C)[nH]c(C(=O)Nc2ccc(NC(C)=O)cc2)c1C 89.5%
COc1ccc(-n2c(O)c(/C=N/Nc3nc(C)cc(C)n3)c3ccccc3c2=O)cc1OC 120%
CC(=O)Nc1ccc(S(=O)(=O)NC2=C(N3CCN(C)CC3)C(=O)c3ccccc3C2=O)cc1 70.6%
O=C(CCc1ccccc1)NNc1cc(N2CCCCC2)nc(N2CCCCC2)n1 82.4%
COc1ccc(Cc2nnc(N/N=C/c3ccccc3O)[nH]c2=O)cc1OC 91.4%

Activity score, inconclusive:
COc1ccccc1NS(=O)(=O)c1cc(NC(=O)c2cc3ccccc3oc2=O)ccc1C -61.3%
O=C(COc1ccccc1F)Nc1nnc(C2CCCC2)s1 -47.8%
Cc1ccc(C2=NNC(c3ccc(Cl)cc3)=Nc3ccccc32)o1 -61%
COc1ccc(NC(=O)c2sc(-c3ccccc3)nc2C)c(OC)c1 -51.1%
O=C(CSc1ccc2c(c1)OCCO2)Nc1cccnc1 -29.6%
CCOC(=O)c1sc(/N=C/C2=C(O)CC(C)(C)CC2=O)c(C(=O)OCC)c1C -59.4%
C=CCNC(=S)Nc1nc2c(cc1C(=O)OCC)CCCC2 -55.8%
COc1ccccc1C(=O)NNC(=O)c1ccc(Br)o1 -59.2%
NC(=S)N/N=C/c1ccc(-c2cc(Cl)c(Cl)cc2Cl)o1 -60.1%
Clc1ccccc1OCCn1cnc2ccccc21 -59.2%
O=C(Nc1ccc([N+](=O)[O-])cn1)c1ccc(Br)o1 -59.6%
CCN(CC)c1ccc(/C=C(/C#N)C(=O)NCc2ccccc2)o1 -61.3%
Cc1nn(-c2ccccc2)c(N)c1N=Nc1cccnc1 -47.8%
Cc1ccc(N=CC=C2OC(C)(C)C(C)(C)O2)cc1 -55%
CCCCNC(=S)N/N=C/c1ccccc1F -57.4%
O=C(Nc1cccnc1)c1c(F)c(F)c(F)c(F)c1F -57%
CCOC(=O)c1sc(NC(=S)NC(=O)c2ccco2)nc1C -55.6%
Cn1c(CCNC(=O)c2ccco2)nc2cc(NC(=O)NC3CCCCC3)ccc21 -54.8%
O=C(Cc1cccs1)NCc1cccc(F)c1 -52%
COCCN1CCN(C(=O)c2ccc3oc(CCCc4ccccc4)nc3c2)CC1 -59.4%
CC(=O)Nc1ccc(-c2csc(NC(=O)Cc3ccccc3F)n2)cc1 -49.5%
CCOc1ccccc1NC(=O)CCc1c(C)nn(-c2ccc(N3CCCCC3)nn2)c1C -45.6%
Cc1nn2c(nc1=O)SCC(c1ccccc1)=N2 -60.3%
CC(C)(C)CC(=O)NCCc1csc(-c2ccccc2)n1 -58.8%
O=C(NC(=S)Nc1cccc2cc(O)ccc12)c1ccco1 -38.3%
COCCNc1nc(-n2nc(C)cc2C)nc2sc3c(c12)CCCC3 -51.6%
CCN1CCN(c2ccc(NC(=O)c3ccc(C#N)cc3F)cc2Cl)CC1 -49.2%
CCOC(=O)Cc1csc(NC(=O)Nc2cccs2)n1 -54.5%
Cc1cccc(N2CCc3c2nc2ccc(Br)cc2c3N)c1 -61.5%
Cc1ccc[n+](-c2nc3ccccc3nc2C(=C=[N-])C#N)c1 -56.8%
O=C1c2cccc3cc([N+](=O)[O-])cc(c23)C(=O)N1/N=C/c1ccc(O)cc1O -55.8%
CC(Sc1ccccc1)C(=O)Nc1ccccc1C(=O)N1CCOCC1 (stereo unspecified) -43.2%
Cn1nnc(NC(=O)c2cccc([N+](=O)[O-])c2)n1 -42.4%
Cc1ccc(C(=O)N/C(=C\c2ccc3c(c2)OCO3)C(=O)Nc2ccc(C(=O)O)cc2)cc1 -37.2%
CC(C)CCn1cnc2c(sc3nc4c(cc32)CSC(C)(C)C4)c1=O -56.3%
OC[C@H]1O[C@@H](Oc2cc(O)cc(/C=C/c3ccc(O)cc3)c2)[C@H](O)[C@@H](O)[C@@H]1O -42.7%
CCCn1cnc2sc(CC)cc2c1=O -58.5%
Cc1ccc(CNc2cccnc2)cc1 -61.4%
[O-]c1c[n+](-c2ccccc2)no1 -35%
COCc1nnc(NC(=O)c2ccc3c(c2)OCO3)s1 -56.7%
Cn1cccc1/C=N/NC(=O)c1cccc(OC(F)(F)C(F)F)c1 -59.5%
